Reference: ChEMBL document CHEMBL4888484, “Replenishing the malaria drug discovery pipeline: Screening and hit evaluation of the MMV Hit Generation Library 1 (HGL1) against asexual blood stage Plasmodium falciparum ,using a nano luciferase reporter read-out” (2022)
Screen size: about 150,000 compounds; about 540 (0.36%) showed an effect of 50% or more. This is one part of the list.

What follows are compounds tested on Plasmodium falciparum (assay: Primary screen in NF54 nanoGlo assay, in single point, at 2uM, 72h; a lower Z score goes with more inhibition). Conditions: timepoint 72 hour.
Type: functional, Erythrocyte

SMILES	% Inhibition [%]	Z score
CC[C@@]1(F)C(=O)Nc2ccccc2C1=O	-5	0.63
COCC[C@H]1CN(CCCn2cc(C)cn2)CCO1	-3	0.58
CC(C)C(=O)N1CCC(NCc2csc(C3CC3)n2)C(C)C1 (stereo unspecified)	-7	1.08
COc1ccc2c(c1)N1CCN(c3ccc(C)cc3)CC1C(C(=O)NCCCN1CCOCC1)C2 (stereo unspecified)	-7	0.82
CC(C)NC(=O)c1cc(NS(=O)(=O)c2ccc(C3CCCCC3)cc2)ccc1N1CCNCC1	-14	1.67
CCN(CC#N)C(=O)c1ccc(C)[nH]c1=O	-2	0.23
Cc1nn(-c2ccc3nncn3n2)c(C)c1CCC(=O)NC1CCCC1	-17	2.12
CC[C@@]1(C)Nc2ccccc2-c2nc(=O)c(-c3ccc(F)cc3)nn21	6	-0.7
COC(=O)[C@@H]1Cc2[nH]cnc2C(C)(C)N1	-12	1.09
CC[C@@H](C)[C@@H]1NC(=O)N(C2CCS(=O)(=O)C2)C1=O (stereo partly specified)	-13	1.58
CO[C@@H](Cc1ccc(F)cc1)CS(=O)(=O)N1CCC(c2ncc[nH]2)CC1	-4	0.89
COCCn1cncc1CN1C(=O)CCCC1=O	-7	0.8
CCN(CC)CC(=O)N1CCN(c2cccnc2C#N)CC1	-4	0.44
O=C(Nc1cnc2ccccc2c1)c1ccccc1C(=O)c1ccc(F)cc1	93	-10.24
O=C(Cc1cnc(-c2ccc(F)cc2)s1)NC[C@@H]1CCCN2CCCC[C@H]12	-8	1.26
O=C1CC2(CCN(S(=O)(=O)c3ccccc3)CC2)CN1Cc1ccccc1	-1	0.24
CC[C@H](NCc1ncccc1C)c1cc(F)ccc1F	-13	1.33
CCCN(CC#Cc1ccccc1)C(=O)[C@H]1CCCN(C(N)=O)C1	-6	1.26
CCc1ncnc(NCCc2cncn2C)c1F	0	-0.01
CC[C@@H](C(=O)N1CCCN(c2ccc(NC(=O)c3cccc(OC)c3)cc2C(=O)NCc2ccc(F)cc2)CC1)c1ccccc1	10	-1.76
NC(=O)c1cc2c(nc1N1CCN(Cc3cccc(F)c3)CC1)CCC2	-13	2.59
Cc1ccc2oc(-c3ccc(NC(=O)CCc4cn[nH]c4)c(C)c3)nc2c1	-3	0.36
Cc1nc(C(F)(F)F)c(Cn2cc(F)ccc2=O)s1	-7	1.01
Cc1cnc(N[C@@H](C)c2ccc(Cl)cn2)nc1C	-4	0.53
CCn1c(C)[n+](CCOCC[n+]2c(C)n(CC)c3cc(Cl)c(Cl)cc32)c2cc(Cl)c(Cl)cc21	7	-0.66
Cc1ccsc1CN(Cc1ccccn1)C(=O)CN1CCCCCC1=O	-12	1.15
Cc1nnc2c(N3CCN(C(=O)C4CC=CC4)CC3)nccn12	-9	1.18

SMILES	% Inhibition [%]	Z score
CC(C)Cn1c(CC2(CC(=O)NC3CCOCC3)CCCC2)nc2cccnc21	-12	1.81
CCOc1cccc(CNC(=O)[C@H]2CCN(c3cnn(C)c(=O)c3)C2)c1	-14	1.88
Cc1c(C(=O)Nc2nccn2Cc2ccccc2Cl)nnn1[C@H]1CCNC1	-8	1.09
CO[C@H]1C[C@H]2CC[C@@H](C1)N2C(=O)c1cccc(OC(F)F)c1	-3	0.37
O=C(NCCN1CCCOC1=O)[C@@H]1CCCN1Cc1ccccc1	-4	0.79
O=C(c1cc(Br)ccc1Cl)N(C(=O)c1cc(Br)ccc1Cl)c1cc(C(F)(F)F)ccc1Cl	-3	0.48
CC(C)C(=O)N[C@@H](C)C(=O)N1CCCC1	-5	0.65
COCCN(CCOC)CC[C@@H]1CC[C@H](O)[C@@H](C(=O)Nc2ccccc2)O1	16	-1.85
CCC1CN(C(=O)C(C)C)CCC1NCc1ncc[nH]1 (stereo unspecified)	-8	1.11
C[C@H](NC1CCN(c2ccccc2Cl)CC1)c1cnn(C)c1	-7	0.81
Cc1cc(Cl)ccc1S(=O)(=O)NC[C@H]1CN(C)CC12CCCCC2	-2	0.39
O=C(CCc1cn[nH]c1)N1CC(Oc2ccccc2F)C1	-4	0.68
CCN1CCN(c2nc(-c3ccccc3)ncc2C(=O)Nc2ccc(C)cc2)CC1	-14	1.28
Cc1c(Cl)cccc1-n1nc(C)c2c(C(F)(F)F)cc(OCCOc3ccccc3)nc21	-16	1.65
Cn1c(=O)c2c(ncn2CC(=O)N(CCC#N)Cc2ccco2)n(C)c1=O	-6	0.84
Cc1ccc(-c2noc3nc(C)cc(C(=O)Nc4ccncc4)c23)cc1	-6	0.94
COC(=O)c1sc(CC(=O)NCc2ccccc2)nc1C	-7	0.74
CCC(CC)NC(=O)Nc1ccn(Cc2cn3ccccc3n2)n1	-7	1.2
C=CCN1CC[C@H](CNC(=O)c2ccc(-c3cc(C)c(C#N)c(C)n3)cc2)C1	0	-0.01
Cc1ccc(-c2noc(CCc3nnc(C4CCCC4)o3)n2)nc1C	3	-0.63
O=C(NCc1ccccc1)c1cn2cc(Cl)cnc2n1	-9	1.58
O=C(c1ccc(=O)[nH]n1)N1CCC(Cc2ccccc2)CC1	-3	0.4
CN(Cc1ccccc1O)C(=O)c1cccc2c3c([nH]c12)CCCC3	-10	1.57
CCCc1cc(N2C[C@H]3C[C@H](O)[C@H](O)C[C@H]3C2)nc(C)n1	-4	0.48
O=C(c1cccc2ccccc12)[C@H]1CCCN(Cc2cccn2-c2nccs2)C1	-6	0.5
CN(C)C(=O)C1(C)CCN(C(=O)c2cccn3cnnc23)CC1	-6	1.02
